B1: OR4K15 (parent)
chain: GUUAACGGUCAUAGGCCAUGGAAACUAGGAGCACCAUUUCGCUGCCAGUGAAGAAAUGAACAAAGAAAAUCUGGGCCAGGCAGGCAUCAAAAGAAAUAGUCUUGCGCUCAACCAGAAAGUCUGUAAUCAUUUUAAGGGUA

The source gives no read counts; variants with many changes may rest on few reads.

Variants of B1 are the subject of the data set. In words: self-cleavage, relative activity (ratio to wild type); higher = more cleavage; in vitro, sequencing; the parent is a self-cleaving ribozyme.
With A30U G75A U87A A126G, the self-cleavage came out at 0.03. To A30G A62G A96G U132C belongs 1.29; to A30U A86G C105G U132C, 0.03; to A27G A129G U131C A135U, 0.19. As for A30G A62G A66G U103C, the figure is 0.59; as for A30G A55G U132C, 1.39. As for A30G U39C U70C, the figure is 0.44; as for A27G U49C A78U U122C, 0.19. Take A30G A69G A126G U131C A135G: the self-cleavage came out at 1.18. A27G A47G A91U: the self-cleavage amounted to 1.08. To A30G A64G A82G U87C A90G belongs 0.1; to A30G A52C A125G A126U, 0.67. As for A30G C85U A94G, the figure is 0.65; as for G28A A60G A95G, 2.22; as for A30G A63G A98G A126G, 0.48. To A30G A56G U100C A117G A118G belongs 0.72.

Consider A30G A55U A67G A89G, for which the self-cleavage is 0.94. On to A30U A51U A54G A66G A90G A96G U133A, for which the self-cleavage worked out at 1.32. To A30G G73A A96U belongs 0.17; to A27G A54G C71U C77A A116G, 0.19. As to A27G U49G C113G U132A, the self-cleavage stood at 0. To A30G A59U A86G G123A belongs 1.09; to A30U A78U A86G C107U U139C, 0.03; to A30G A54G A59G, 0.85.

A27U U102C U120A U122C U127C: the self-cleavage worked out at 2.28. As for A30G A95G C107G U122C, the figure is 0.01; as for A30G A60G A69G, 1.43.

As for A30G A59G A66G, the self-cleavage worked out at 0.78.

With A27G A33G U87C, the self-cleavage is 0.79. On to A27G A30U A55G U70A, for which the self-cleavage turned out to be 0.66. In the case of A30G A59G A117G, the self-cleavage turned out to be 2.28. For the variant A27C U72C G136A, the self-cleavage was 0.07. As for A30G U87C U97C, the figure is 1.11; as for A30G U57A A68G A69G U72A, 0.21; as for A27U U43C A54G A82C U108C U122C, 0.01.

For A27G A30U U108G, the self-cleavage came to 0. Take A30G U39A A55U A59G U120C A135U: the self-cleavage came out at 0.92. For A30G A54U A66G U72C C113U, the self-cleavage was 0.02.

Consider A30G A59G A64G, for which the self-cleavage was found to be 1.25. With A30G U97C A110U A116G, the self-cleavage amounted to 0.05.

As for U26C U72C A95G U108C, the self-cleavage amounted to 0.02. To A30G A64G A135U belongs 1.49. A30G U108C A116G: the self-cleavage was 0.02. For the variant A30U A66G G99U A111U, the self-cleavage came out at 0.06.

A27G A59G G137U: the self-cleavage was found to be 0.96. On to A30G U49A A92U U102C G106A, for which the self-cleavage is 0.03. Consider A30U A56C A95G, for which the self-cleavage amounted to 1.48. To A30U A78U U132C belongs 0.21. To A30G A78G U97C G138A belongs 0.26. In the case of A30U A94G U122A, the self-cleavage is 2.37.

As to A30G A52G A114C, the self-cleavage was 0.07. Consider A30G U72C A126G U131C, for which the self-cleavage is 0.12. To A27G A52G A78G belongs 0.19; to A30U U39A U72C, 0.35; to G28A A111U C112U, 0.02. Regarding A27G U39C A55G, the self-cleavage came out at 0.79. Turning to A30G U87A U133C, the self-cleavage is 1.55. Turning to A30G A60U A64G G74A A91G U100C A110G, the self-cleavage came to 0.07.

Consider A30G U57A A59G A92G U100C, for which the self-cleavage came to 1.69.

With A27G U37C A68G A96C, the self-cleavage was found to be 1.29.

For A30G A47G U108A, the self-cleavage was 0.03. To A27G U43C A51U A64G A114C belongs 0.05; to A27G U70C U103C A126G, 0.18; to A27G C35A A69G A95G, 1.27. To A30G U49A U70C belongs 1.11; to G28U A52G U130C A135G, 0.18; to A27U A63G U87C U102C A118G A140U, 2.58. As for A30U A78C A86G A126G G137A, the figure is 0.07; as for A30G A55C A66G A96G U108C, 0.01. Take A30U A114G A117G: the self-cleavage was 0.32.

Turning to A27G A36U U87A A116U, the self-cleavage amounted to 0.61. Consider A30G A56G A125G, for which the self-cleavage came to 0.6. To A30G A54G U70C A118G belongs 0.22; to A30U A78G A94G U127C, 0.13; to A30G A47G C77U, 1.62. To A30U A64U U127C belongs 0.96; to A27U A59G A64G A69U U102C, 1.76; to A30C A52G A89G A125G, 0.06. To A30G A82G A125U belongs 0.98; to A30G A86G A116G, 1.46; to G28U A68G G80U A126G G138U, 0.03.

In the case of A30G U38C U122C, the self-cleavage amounted to 0.87. A27G U43C A55G: the self-cleavage amounted to 1.07. As for A30U A66G U87A, the figure is 2.34. As to A30G U38C A64U, the self-cleavage was found to be 0.93. On to G29C A54G A59G A89G, for which the self-cleavage is 0.95. To G29U A59U A89G belongs 1.64; to A27U A59G U131C, 0.71; to A30G U100C A116G A135G, 0.61. As for A27G A30G U43C A66G A135U, the figure is 0.59.

On to A30G A36G A89G, for which the self-cleavage was 1.72. As for A30G A60G A129G, the figure is 1.59.

A30G A67U U132C: the self-cleavage turned out to be 1.59. As for A30G U43A A90U U130C, the figure is 1.2; as for A27G U39C U72G, 0.23; as for A27G A118G U127C, 0.28.

Take A27U G29A A134U: the self-cleavage amounted to 1.22. To A30G A59U A110U belongs 2.06; to A30G A116U A126G, 0.02. As for G29A A52C A69U A82G U127C, the figure is 0.19.

A30G A52G A96U: the self-cleavage came out at 1.44. As to U26C U87C C109U U120C U122A, the self-cleavage was determined as 0.06. Consider A30G A64G A67G, for which the self-cleavage is 0.72.

Turning to A30G A55G A59G A64G C76U, the self-cleavage came out at 0.26. As to A30U A56G A59U U131C U132C, the self-cleavage worked out at 0.58. As for A30G U124C A140G, the figure is 0.37. Take G28U A82U U100C A114G U122C: the self-cleavage is 0.06. To A30G A47G U57C A69U belongs 1.12; to A30G A47G A69U A92G A135G, 1.48.

Consider A27C A78U A91G U100C A111G U120C, for which the self-cleavage came to 0.01. Regarding A30G A62U U122C A126G, the self-cleavage is 0.96. As for A30G U70A A116G, the figure is 0.67; as for A30G A55U U72A, 0.18. On to A30G A96G A118G, for which the self-cleavage is 1.57.

In the case of A30G A55U A67G, the self-cleavage was found to be 1.71. To A30U C32U U139C belongs 1.29; to A30G A94G U131C A135G, 0.53. As for A30U A56G A68G, the figure is 0.92; as for A30U A60U U70C, 0.65. As for A30G A60U A96U, the figure is 1.74. On to A27U G31A C128U U132C, for which the self-cleavage is 1.59.

Regarding A27U U57C A89U, the self-cleavage was 1.7. With A30G U103C U127C, the self-cleavage worked out at 0.81. As for A30G A86G G99A, the figure is 0.12. To A27G A94G A129C belongs 0.79; to A30G A114U A116G A126G, 0; to A30G C42U U70C A89U A94G U130C, 0.43.

Consider A30G A55G A62U, for which the self-cleavage came to 0.52. As for U26C U122C U127A, the self-cleavage came to 0.72.

For the variant A30G A68G U70G U108C A110U A111U, the self-cleavage worked out at 0. To A27G A54G C113U belongs 0.06.

Consider A30G U70A A117U, for which the self-cleavage came to 0.14. A30U A86G A92G U103C A129G: the self-cleavage is 0.59.

A30U A33G A98G U122C: the self-cleavage is 0.51. As to A30G A47G A51G A67G A111U, the self-cleavage came out at 0.

For A30G A117G A129G U131C, the self-cleavage was determined as 1.56. To A30G U43C A89U U100C U127A belongs 2.17; to A30U A52G U108C A135G A140G, 0.01; to A30G A33G G44C C46U A52G U132C, 1.06. For A30G A52U U122C, the self-cleavage is 0.99. To A30G A82G U131C belongs 0.37. In the case of A30U A98G U132G A140U, the self-cleavage was 0.39. As for A27G U127C A129U, the figure is 0.31. To A27G U38C A69U A82G A94U belongs 0.43.

On to U26C U39C A78G U130C, for which the self-cleavage stood at 0.15. As to A27U A63G C77U, the self-cleavage stood at 1.24. To A27U A47G A54G A68G A92U A117G belongs 2.24. To A30C A54G U57C belongs 0.76; to A30G A55G A89G A118G, 0.18.

A30G A60G U103C: the self-cleavage came out at 1.35. With A27G A95G A114G, the self-cleavage worked out at 0.52. As for G29U U39C U70C A86G, the figure is 0.89; as for A30C A82G A95G C112A G137U, 0.03. As for A30G A82U U102A A118G, the figure is 0.68; as for A27U A30G U100C U132C, 1.62. As for A27G A56G A95G, the figure is 2.37. For the variant A30G U49G A89G, the self-cleavage worked out at 0.71. To U26C U124A U130C belongs 0.94; to A27C G73A A90G A92G A94G U124C, 0.04. To A30G U120C U131C U139C belongs 0.9; to A27G G115A A126G, 0.03; to A27G A59U A78U U122C, 0.22.

Regarding A30G A47U A94G A129C, the self-cleavage turned out to be 0.39. Take A30U A66G U108C: the self-cleavage stood at 0.03.

With A30G A51G A64G A118C U131C, the self-cleavage came to 0.04. To A27G A82G A125G belongs 0.14. As for A27G U49C U133C A134G, the figure is 0.47.

The values are drawn from the RNAGym collection of RNA variant scans (doi:10.7554/elife.90254).
